From PubChem BioAssay (NCATS)
This list was built around the results that the source calls inconclusive (neither active nor inactive); the mix of calls is not that of the screen. For part of these data: Where the call is inconclusive, the potency comes from a doubtful curve fit. Active and inactive are the calls of the source. Unless noted, calls follow the shape of the dose curve; as a rule, active = well fitted curve in the direction sought with a large enough effect; inconclusive = small, poorly fitted or top-dose-only effect, or another doubt; inactive = no such curve, though single readings can be large; an effect the other way counts as inactive or inconclusive.

What was measured:
[1] = P-glycoprotein substrates identified in KB-8-5-11 adenocarcinoma cell line, qHTS therapeutic library screen (AID 1346987); conditions: activity change, negative = cytotoxicity: at 44.5 µM (top of the series); also: % is scaled to controls: 0 for no effect and ±100 for the full control effect; nearly all actives have a fitted effect of over 65% in size
In short: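 Luminescence from CellTiter-Glo, read 5 min after addition, quantified survival of KB-8-5-11 (P-gp-overexpressing) cells exposed to compounds for 72 h. AC50 was derived from concentration-response curves.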

[2] = target: Cytochrome P450 2D6 (Homo sapiens) (UniProt P10635); assay: Cytochrome P450 family 2 subfamily D member 6 (CYP2D6) small molecule antagonists: luciferase biochemical (cell-free) qHTS assay (AID 1645840; active = well fitted curve in the direction sought with a large enough effect in the repeat runs; inconclusive = weak or mixed curves; inactive = no such curve, though single readings can be large; an effect the other way counts as inactive or inconclusive; also: potency is read from the fitted curve at half-maximal effect; nearly all actives have a fitted effect of over 55% in size)
UniProt P10635, sequence (P10635 whole entry, looked up): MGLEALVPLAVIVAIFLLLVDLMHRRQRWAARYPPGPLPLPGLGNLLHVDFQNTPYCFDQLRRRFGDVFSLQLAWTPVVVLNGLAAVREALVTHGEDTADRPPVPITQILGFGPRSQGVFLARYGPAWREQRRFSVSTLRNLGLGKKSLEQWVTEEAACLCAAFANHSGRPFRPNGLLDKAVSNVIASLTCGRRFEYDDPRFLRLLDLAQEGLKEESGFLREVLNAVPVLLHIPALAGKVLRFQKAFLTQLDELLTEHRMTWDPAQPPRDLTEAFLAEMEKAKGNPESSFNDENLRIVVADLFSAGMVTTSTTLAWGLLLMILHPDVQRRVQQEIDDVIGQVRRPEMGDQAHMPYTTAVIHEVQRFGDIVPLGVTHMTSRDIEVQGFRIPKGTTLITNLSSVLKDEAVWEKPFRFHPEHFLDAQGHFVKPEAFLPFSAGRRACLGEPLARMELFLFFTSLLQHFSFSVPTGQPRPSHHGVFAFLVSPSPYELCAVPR
In short: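 P450-Glo CYP2D6 system: proluciferin substrate converted by enzyme to luciferin, read by luminescence proportional to activity. Enzyme-substrate mix with compound 10 min at room temperature, then NADPH regeneration 1 h before detection reagent.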

[3] = target: Cytochrome P450 2C9 (Homo sapiens) (UniProt P11712); assay: Cytochrome P450 family 2 subfamily C member 9 (CYP2C9) small molecule antagonists: luciferase biochemical (cell-free) qHTS assay (AID 1645842; active = well fitted curve in the direction sought with a large enough effect in the repeat runs; inconclusive = weak or mixed curves; inactive = no such curve, though single readings can be large; an effect the other way counts as inactive or inconclusive; also: potency is read from the fitted curve at half-maximal effect; nearly all actives have a fitted effect of over 55% in size)
UniProt P11712, sequence (P11712 whole entry, looked up): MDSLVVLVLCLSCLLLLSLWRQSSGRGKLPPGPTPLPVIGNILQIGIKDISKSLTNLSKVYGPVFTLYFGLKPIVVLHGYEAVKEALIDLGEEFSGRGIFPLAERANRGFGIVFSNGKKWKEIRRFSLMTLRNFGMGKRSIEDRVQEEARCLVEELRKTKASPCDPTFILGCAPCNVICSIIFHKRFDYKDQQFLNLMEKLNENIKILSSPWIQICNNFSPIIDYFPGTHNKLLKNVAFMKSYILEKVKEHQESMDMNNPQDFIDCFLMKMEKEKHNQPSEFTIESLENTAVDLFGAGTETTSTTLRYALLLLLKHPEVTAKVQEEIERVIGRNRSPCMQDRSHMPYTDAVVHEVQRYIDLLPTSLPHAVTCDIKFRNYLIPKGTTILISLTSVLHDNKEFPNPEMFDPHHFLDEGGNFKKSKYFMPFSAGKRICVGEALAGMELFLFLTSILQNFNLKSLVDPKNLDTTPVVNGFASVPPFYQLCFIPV
In short: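 P450-Glo CYP2C9 system: proluciferin substrate with enzyme in mix containing 0.4% BSA, 10 min at room temperature, then NADPH regeneration solution added and incubated 1 h at 37C. Detection reagent stopped reaction; luminescence read after 20 min as RLU.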

[4] = Primary qHTS for inhibitors of nuclear receptor binding SET domain protein 2 (NSD2) in an RCH-ACV wild type WT cells (2C) (AID 1645877); conditions: activity change, negative = cell killing: at 44.9 µM (top of the series) unless noted; also: potency is read from the fitted curve at half-maximal effect; nearly all actives have a fitted effect of over 70% in size
[5] = tested on: HaCat; assay: Cytotoxic Profiling of Annotated Libraries Using Quantitative High-Throughput Screening (AID 1296008); conditions: Five cell lines viability, CellTiter-Glo ATP luminescence, 48-72 h; max response: active compounds read low; also: nearly all actives have a fitted effect of over 60% in size; also: potency is read from the fitted curve at half-maximal effect; as to max response: % is scaled to controls: 0 for no effect and ±100 for the full control effect
In short: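 Cells exposed to compounds for 48 or 72 hr at 37 degrees Celsius. Viability read as ATP-coupled luminescence with CellTiter-Glo after 10 min at room temperature.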

[6] = qHTS of pediatric cancer cell lines to identify multiple opportunities for drug repurposing: Primary screen for SK-N-MC cells (AID 1347093); conditions: SK-N-MC viability, CellTiter-Glo luminescence, 48 h; activity change, negative = cytotoxic: at 46 µM (top of the series);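 also: plate controls were DMSO neutral control for no effect and bortezomib for full effect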
In short: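 Metabolically active cells were quantified by ATP-dependent luminescence (CellTiter-Glo, 15 min at room temperature) following 48 h treatment. Cells had been plated at 500-1,000 per well and settled for 5 h beforehand.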

[7] = qHTS of pediatric cancer cell lines to identify multiple opportunities for drug repurposing: Primary screen for BT-37 cells (AID 1347094);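 also: plate controls were DMSO for no effect and bortezomib for full effect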
In short: (§1)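 Primary screen of approved and investigational compounds on cells in growth media at 37 degrees C, 5% CO2. MIPE set at 11-point and NPC set at 8-point dilutions; viability scored by ATP-based luminescence at 48 hours.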

[8] = qHTS of pediatric cancer cell lines to identify multiple opportunities for drug repurposing: Primary screen for Saos-2 cells (AID 1347097); conditions: Saos-2 viability, CellTiter-Glo ATP luminescence, 48 h; activity change, negative = cytotoxic: at 46 µM (top of the series); also: % is scaled to controls: 0 for no effect and ±100 for the full control effect; nearly all actives have a fitted effect of over 40% in size
In short: as §1

[9] = qHTS of pediatric cancer cell lines to identify multiple opportunities for drug repurposing: Primary screen for SK-N-SH cells (AID 1347098);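 also: DMSO served as neutral control and bortezomib at 2.3 µM as positive control; % is scaled to controls: 0 for no effect and ±100 for the full control effect; nearly all actives have a fitted effect of over 65% in size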
In short: (§2)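 Cells (500-1,000/well) rested 5 h, then received compounds for 48 h; metabolically active cells were measured by CellTiter-Glo luminescence. Final concentrations spanned up to 46 µM (MIPE, 11-point) or 0.59 nM-46 µM (NPC, 8-point) in primary screens, 11-point in follow-ups.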

[10] = qHTS of pediatric cancer cell lines to identify multiple opportunities for drug repurposing: Primary screen for NB1643 cells (AID 1347099); conditions: NB1643 neuroblastoma viability, CellTiter-Glo luminescence, 48 h; activity change, negative = cytotoxic: at 46 µM (top of the series);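 also: plate controls were DMSO neutral control for no effect and bortezomib positive control for full effect; nearly all actives have a fitted effect of over 50% in size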
In short: as §1

[11] = qHTS of pediatric cancer cell lines to identify multiple opportunities for drug repurposing: Primary screen for OHS-50 cells (AID 1347103); conditions: OHS-50 osteosarcoma viability, CellTiter-Glo luminescence, 48 h; activity change, negative = cytotoxic: at 57.3 µM (top of the series);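 also: plate controls were DMSO neutral control for no effect and bortezomib positive control for full effect; nearly all actives have a fitted effect of over 40% in size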
In short: as §2

[12] = qHTS of pediatric cancer cell lines to identify multiple opportunities for drug repurposing: Primary screen for RD cells (AID 1347104);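 also: plate controls were DMSO for no effect and bortezomib for full effect; nearly all actives have a fitted effect of over 55% in size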
In short: as §1

[13] = qHTS of pediatric cancer cell lines to identify multiple opportunities for drug repurposing: Primary screen for MG 63 (6-TG R) cells (AID 1347105); conditions: MG 63 (6-TG R) viability, CellTiter-Glo, 48 h; activity change, negative = cytotoxic: at 46 µM (top of the series); also: % is scaled to controls: 0 for no effect and ±100 for the full control effect; nearly all actives have a fitted effect of over 50% in size
In short: as §1

[14] = qHTS of pediatric cancer cell lines to identify multiple opportunities for drug repurposing: Primary screen for Rh30 cells (AID 1347107); also: % is scaled to controls: 0 for no effect and ±100 for the full control effect; nearly all actives have a fitted effect of over 75% in size
In short: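 Viability after 48 h compound treatment at 37C, 500-1,000 cells/well, read as ATP luminescence with CellTiter-Glo. Primary screens used 11-point (MIPE, 0.78 nM-46 µM) or 8-point (NPC, 0.59 nM-46 µM) final concentrations; follow-up screens used 11-point dilutions.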

[15] = tested on: Zika virus NS2B-NS3 protease; assay: Primary screen GU AMC qHTS for Zika virus inhibitors (AID 1347154);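 also: 0% = no-inhibitor control and -100% = no-enzyme control; nearly all actives have a fitted effect of over 70% in size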
In short: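 Unlinked Zika NS2B hydrophilic domain–NS3 protease complex at 25 nM in 10 mM Tris-HCl pH 8.0, 0.01% Tween 20, with an AMC peptide substrate. Fluorescence change (340/450 nm) over 15 min at room temperature, normalized to controls, fitted to 4-parameter Hill.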

[16] = Primary qHTS for small molecule stabilizers of the endoplasmic reticulum resident proteome: Secreted ER Calcium Modulated Protein (SERCaMP) assay (AID 1508630); conditions: SH-SY5Y GLuc-SERCaMP (Gaussia luciferase released on ER calcium loss) secretion, thapsigargin, luminescence; activity change, negative = inhibition: at 38.4 µM (top of the series) unless noted; also: potency is read from the fitted curve at half-maximal effect
In short: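 The SH-SY5Y reporter protocol was run at 3 concentrations up to 38.3 uM (primary) or 11 concentrations (follow-up): 16 h compound, 100 nM thapsigargin for 4 h, then extracellular luciferase luminescence.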

[17] = Drug repurposing screens with cells derived from glioblastoma tumor samples (AID 1345199); conditions: GBM patient neurospheres viability, ATP luminescence, 48 h; Potency: tumour line A unless noted; activity, negative = cell killing: at 46 µM (top of the series), tumour line A unless noted; also: % is scaled to controls: 0 for no effect and ±100 for the full control effect; nearly all actives have a fitted effect of over 40% in size
In short: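 Primary testing used CD133+ neurospheres from four GBM patients, seven concentrations, 48 h exposure and ATP-based viability; confirmation added three slower-growing patient lines.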

[18] = target: Furin (Homo sapiens) (UniProt P09958); assay: Furin counterscreen qHTS for Zika virus inhibitors (AID 1347149); also: potency is read from the fitted curve at half-maximal effect; nearly all actives have a fitted effect of over 70% in size
UniProt P09958, sequence (P09958 whole entry, looked up): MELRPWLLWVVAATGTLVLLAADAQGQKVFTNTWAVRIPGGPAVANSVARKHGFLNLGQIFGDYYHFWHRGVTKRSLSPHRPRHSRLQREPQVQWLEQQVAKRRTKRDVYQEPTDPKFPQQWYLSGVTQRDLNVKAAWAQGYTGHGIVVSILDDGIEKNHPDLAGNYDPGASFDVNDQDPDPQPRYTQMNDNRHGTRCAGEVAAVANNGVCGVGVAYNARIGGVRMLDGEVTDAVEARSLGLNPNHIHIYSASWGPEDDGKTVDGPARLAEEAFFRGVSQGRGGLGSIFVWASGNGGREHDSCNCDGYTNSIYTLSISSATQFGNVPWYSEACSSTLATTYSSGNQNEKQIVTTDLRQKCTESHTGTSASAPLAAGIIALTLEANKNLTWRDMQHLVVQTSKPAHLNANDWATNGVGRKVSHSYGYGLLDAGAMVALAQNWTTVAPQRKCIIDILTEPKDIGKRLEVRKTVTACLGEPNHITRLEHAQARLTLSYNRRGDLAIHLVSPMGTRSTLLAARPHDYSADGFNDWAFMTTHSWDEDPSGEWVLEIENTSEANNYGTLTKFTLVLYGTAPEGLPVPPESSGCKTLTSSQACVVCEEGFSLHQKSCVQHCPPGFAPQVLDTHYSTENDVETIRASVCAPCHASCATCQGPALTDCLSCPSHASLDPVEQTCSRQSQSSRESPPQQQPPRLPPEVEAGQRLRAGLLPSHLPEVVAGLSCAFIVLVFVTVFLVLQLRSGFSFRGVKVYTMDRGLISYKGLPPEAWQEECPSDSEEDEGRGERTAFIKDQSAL
In short: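 Counterscreen measures cleavage of 2 microM BOC-RVRR-AMC, below its ~15 microM Km, by 5 nM full-length human furin at pH 7.0 after a 15-min compound preincubation. Inhibition derives from the 15-min fluorescence increase at 37C.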

[19] = ZIKV-mCherry secondary qHTS for Zika virus inhibitors (AID 1347158); also: potency is read from the fitted curve at half-maximal effect
In short: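 Compounds were tested in Vero monkey kidney cells infected with recombinant mCherry-expressing Zika virus at MOI 1 for 48-72 h at 37 °C. Fixed cells were nuclear-stained and imaged, and infection rate was taken as the fraction of mCherry-positive cells.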

[20] = tested on: Zika virus NS2B-NS3 protease (unlinked complex); assay: Primary screen GU Rhodamine qHTS for Zika virus inhibitors: Unlinked NS2B-NS3 protease assay (AID 1347159); conditions: Recombinant ZIKV NS2B-NS3 protease, Rhodamine110 substrate fluorescence; activity change, negative = inhibition: at 107 µM (top of the series); also: potency is read from the fitted curve at half-maximal effect; nearly all actives have a fitted effect of over 60% in size
In short: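 Enzyme 25 nM in Tris-HCl pH 8.0 + 0.01% Tween 20; compounds up to 114 microM, 15 min RT dark; + Rhod110 substrate 1.5 microM; read t0 and 15 min; delta fluorescence → % inhibition → 4-parameter Hill fit.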

[21] = tested on: Zika virus NS2B-NS3 protease (linked construct); assay: Primary screen NINDS Rhodamine qHTS for Zika virus inhibitors (AID 1347160); also: potency is read from the fitted curve at half-maximal effect; nearly all actives have a fitted effect of over 55% in size
In short: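 Enzyme (25 nM, linked NS2B-NS3) was preincubated 15 min with compound in 10 mM Tris-HCl pH 8.0, 0.01% Tween 20. Rhodamine110 substrate (1.5 microM) was then added and fluorescence read at start and after 15 min.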

[22] = Tertiary RLuc qRT-PCR qHTS assay for Zika virus inhibitors (AID 1347169)
In short: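 Vero cells (1,000 per well) plated overnight at 37 degrees C, treated with compound in DMSO, then infected with recombinant ZIKV-RLuc (Cambodian) at MOI 1-2 for 48-72 hrs. Live-cell Renilla luciferase substrate added; luminescence read after 1-1.5 hrs.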

[23] = Primary qHTS for inhibitors of nuclear receptor binding SET domain protein 2 (NSD2) in an isogenic RCH-ACV NSD2 p.E1099K mutant (9B) (AID 1645876); conditions: activity change, negative = viability loss: at 44.9 µM (top of the series) unless noted; also: potency is read from the fitted curve at half-maximal effect; nearly all actives have a fitted effect of over 70% in size
[24] = Primary fluorescence-based thiol-reactive (MSTI) qHTS assay for identification of artifact compounds. (AID 1845221);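 also: potency is read from the fitted curve at half-maximal effect; thiol-reactive compounds lower the probe fluorescence signal; nearly all actives have a fitted effect of over 65% in size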
In short: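 MSTI probe at 4 uM final in 2% DMSO/PBS pH 7.4; compounds, 1 h at room temperature in dark. Fluorescence Ex/Em 525/598 nm, normalised to Acetyl-MSTI and MSTI, fitted to 4-parameter Hill.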
Tags tell the direction and shape of the fitted curve.

CCOC(=O)Nc1nc2ccccc2[nH]1
inconclusive: Potency [3] 16.9 µM [inhibitor, partial curve] | Potency [4] 18.3 µM [inhibitor, single point]
inactive: Potency [1] | max response [5] -2.18%
active: Potency [2] 3.79 µM

O=P(O)(O)OCC(O)CO (configuration not stated)
inactive: Potency [6] | Potency [7] | Potency [8] | Potency [9] | Potency [10] | Potency [11] | Potency [12] | Potency [13] | Potency [14] | Potency [15] | max response [5] 0.361% | Potency [17]
inconclusive: Potency [16] 2 µM [inhibitor, full curve, poor fit]

COc1cc(Nc2nc3ccccc3nc2NS(=O)(=O)c2ccc(NC(=O)c3ccc(OC)c(C)c3)cc2)cc(OC)c1
inconclusive: Potency [18] 15.2 µM [inhibitor, partial curve, poor fit] | Potency [19] 5.01 µM [inhibitor, full curve] | Potency [22] 16.5 µM [inhibitor, partial curve] | Potency [23] 6.49 µM [inhibitor, partial curve] | Potency [4] 5.78 µM [inhibitor, partial curve] | Potency [5] 4.61 µM [inhibitor, full curve]
active: Potency [20] 2.82 µM | Potency [21] 8.91 µM | Potency [24] 1.68 µM
